Experimental data: PubChem BioAssay AID1508623 (National Center for Advancing Translational Sciences (NCATS), 2021)
Screen size: about 48,000 compounds; about 450 (0.94%) were called active. Another 19% or so got no clear call; they are omitted. Calls come from the whole dose curve; as a rule, active = well fitted inhibition curve with a large enough effect; inconclusive = small, poorly fitted or top-dose-only effect; inactive = no such curve, though single readings can be large or run the other way. This is one part of the list.

test: Primary qHTS for Identification of Small Molecule Inhibitors of Huntingtin Promoter Activity; settings: HEK293 HTT promoter firefly luciferase reporter (activity 0% = vehicle and -100% = no light), 24 h; activity change, negative = inhibition: at the top concentration; note: nearly all actives have a fitted effect of over 50% in size
How it was run: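 Firefly luciferase readout (Dual-Glo, 10 min RT) after 24 h, 37 °C compound exposure (final up to 57.5 uM) of HEK293 reporter cells cultured 24 h beforehand; PTC124 at 50 uM final as control inhibitor; activity scaled vehicle 0%, zero RLU -100%.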

Compound | activity change, negative = inhibition
Cc1cccc(C)c1OCC(=O)Nc1ccc(Cl)cc1C(=O)c1ccccc1 | inactive: -10.1%
CN1CCC(O)(c2ccc(F)cc2)C(C(=O)c2ccc(F)cc2)C1 (configuration not stated) | inactive: 2.41%
COP(=O)(OC)OC=C(Cl)Cl | inactive: 7.03%
CC(C)C(Br)C(=O)NC(N)=O (configuration not stated) | inactive: -5.51%
N#CC(C#N)=Cc1ccc(O)c(O)c1 | inactive: 16.5%
Cc1ccc(-n2c(/C=C/c3cc(Br)cs3)nc3ccccc3c2=O)cc1C | inactive: -30.3%
COc1ccc(C)cc1NC(=O)c1cccn(Cc2ccccc2Cl)c1=O | inactive: -6.03%
CC(CC(C#N)(c1ccccc1)c1ccccc1)N(C)C (configuration not stated) | inactive: -18.4% [at 116 µM]
COP(=O)(OC)C(O)C(Cl)(Cl)Cl (configuration not stated) | inactive: 3%
O=c1n(Cl)c(=O)n(Cl)c(=O)n1Cl | inactive: 16.1%
Cn1cc(C2=C(c3cn(C4CCN(Cc5ccccn5)CC4)c4ccccc34)C(=O)NC2=O)c2ccccc21 | inactive
Cn1c(=O)n(C)c2cc(CNCCc3ccccc3F)ccc21 | inactive: -11.2%
C=CCN1CC[C@]23c4c5ccc(O)c4O[C@H]2C(=O)CC[C@@]3(O)[C@H]1C5 | inactive: 10.6%
OCCOc1ccccc1 | inactive: 10.2%
O=C1CC(c2ccccc2Br)c2c(c3ccccc3oc2=O)O1 (configuration not stated) | inactive: -6.37%
ClCc1cccc(Cl)c1 | inactive: -4.05%
O=S(=O)(O)C(F)(F)C(F)(F)C(F)(F)C(F)(F)C(F)(F)C(F)(F)C(F)(F)C(F)(F)F | inactive: 5.2% [at 116 µM]
COc1c2c(cc3c1OCO3)CCN(C)C2 | inactive: 1.79%
C[C@]12CC[C@@H]3c4ccc(OC(=O)N(CCCl)CCCl)cc4CC[C@H]3[C@@H]1CC[C@@H]2OP(=O)(O)O | inactive: 15.4%

Compound | activity change, negative = inhibition
N#Cc1ccccc1NC(=O)c1cccn(Cc2ccccc2)c1=O | inactive: -50.4%
O=c1c(C2CC(c3ccc(-c4ccc(Br)cc4)cc3)Cc3ccccc32)c(O)sc2ccccc12 (configuration not stated) | inactive: -26.2%
COC(=O)[C@@H](N)CCCN/C(N)=N/[N+](=O)[O-] | inactive: -6.07%
O=C1C=CC[C@@H]2[C@H]3CCCN4CCC[C@@H](CN12)[C@@H]34 | inactive: -47.9%
Nc1ccc(Cl)cc1 | inactive: -10.5% [at 116 µM]
CN[C@@H](C)[C@H](O)c1ccccc1 | inactive: -6.1%
COc1ccc(Cl)cc1NC(=O)c1sc2nc3c(cc2c1N)N1CCC3CC1 | inactive: -4.45%
CCC(C(=O)Nc1ccccc1F)N1C(=O)CN=C(c2ccccc2)c2ccccc21 (configuration not stated) | inactive: -11%
CC[C@]1(O)CC[C@H]2[C@@H]3CCC4=CCCC[C@@H]4[C@H]3CC[C@@]21C | inactive: -7.44%
Clc1ccccc1N1CCNCC1 | inactive: 5.36%
c1ccc2c(c1)Nc1ccccc1S2 | inactive
C[C@]12CC[C@H]3[C@@H](CC=C4C[C@@H](O)CC[C@@]43C)[C@@H]1CC[C@@H]2O | inactive: -5.32%
CC(C)c1ccc(NC(=O)CN2C(=O)CN=C(c3ccccc3)c3ccccc32)cc1 | inactive: -15.3%
CC(C)(C)C(O)C(Oc1ccc(Cl)cc1)n1cncn1 (configuration not stated) | inactive: -13.9% [at 116 µM]
COc1ccc(OCC(=O)N2CCN(CCc3ccccn3)CC2)cc1 | inactive: 47.6% [at 11.5 µM]
COc1cc(CC(C)N)c(OC)cc1Br (configuration not stated) | inactive: -3.71% [at 116 µM]
NCC(O)c1ccc(O)cc1 (configuration not stated) | inactive: -1.1%
O=C(Cn1cc(C(=O)c2ccccc2)c2ccccc21)Nc1ccc(Br)cc1 | inactive: -22.1%
Nc1ccc(Cl)cc1C(=O)c1ccccc1F | inactive: -16.1%

Compound | activity change, negative = inhibition
CN(C)CCc1c[nH]c2cccc(O)c12 | inactive: -0.517% [at 116 µM]
Cc1cccc(CN2C(=O)CN=C(c3ccccc3)c3cc(Cl)ccc32)c1 | inactive: -30%
CCCc1ccc(OCC(=O)Nc2ccc(Cl)cc2C(=O)c2ccccc2)cc1 | inactive: 2.89%
Cc1cccc(-n2c(/C=C/c3cn(C)c4ccccc34)nc3ccccc3c2=O)c1 | inactive: -18%
Cc1cc(NC(=O)c2cccn(Cc3cccc(Cl)c3)c2=O)no1 | inactive: -8.58%
O=C(O)CCCOc1ccc(Cl)cc1Cl | inactive: 17.3% [at 116 µM]
C[C@]12CCC(=O)C(O)=C1CC[C@@H]1[C@@H]2CC[C@]2(C)C(=O)CC[C@@H]12 | inactive: 0.0668%
CC[C@H]1C[C@@H]2C[C@H]3c4[nH]c5ccc(OC)cc5c4CCN(C2)[C@@H]13 | inactive: -18% [at 116 µM]
O=C(Nc1ccon1)c1cccn(Cc2ccccc2)c1=O | inactive: -7.05%
OC(O)C(Cl)(Cl)Cl | inactive: 12.6%
CCOP(=S)(OCC)Oc1cc(C)nc(C(C)C)n1 | inactive: 10.6%
CNC(C)(C)Cc1ccccc1 | inactive: 8.01%
c1ccc(C2CC2)c(OCC2=NCCN2)c1 | inactive: 6.78%
C[C@]12CCC(=O)C=C1CC[C@@H]1[C@@H]2CC[C@@]2(C)[C@H]1CC[C@]2(C)O | inactive: -20.5%
CCS(=O)(=O)C(C)(C)S(=O)(=O)CC | inactive: -2.7%
O=c1[nH]c2cc(Cl)ccc2n1C1CCNCC1 | inactive: 12.6%
COc1ccc(OCC(=O)N2CCN(Cc3cc(=O)n4nc(-c5ccccc5C)sc4n3)CC2)cc1 | inactive: -38.2%
CC(=O)NS(=O)(=O)c1ccc(NC(=O)c2cccn(Cc3ccc(Cl)cc3)c2=O)cc1 | inactive: -14.6%
CN(C)CCc1c[nH]c2cccc(OP(=O)(O)O)c12 | inactive: -11.4% [at 116 µM]
